Experimental data from PubChem BioAssay AID504339 (National Center for Advancing Translational Sciences (NCATS), 2011).
Out of some 390,000 compounds screened, about 17,000 (4.4%) were called active. This list was built around the results that the source calls inconclusive (neither active nor inactive); the mix of calls is not that of the screen. The call rests on the fitted dose curve; in most records, active means well fitted inhibition curve with a large enough effect; inconclusive means small, poorly fitted or top-dose-only effect; inactive means no such curve, though single readings can be large or run the other way. Potencies beside an inconclusive call are fits to weak or partial responses and may not hold up.

The molecules below were run against Lysine-specific demethylase 4A (Homo sapiens) (UniProt O75164) (assay: qHTS Assay for Inhibitors of JMJD2A-Tudor Domain). Conditions: AlphaScreen JMJD2A-Tudor / H3K4me3 peptide binding; activity change, negative = inhibition: at 114 µM (top of the series).
Chain of UniProt O75164 (O75164 whole entry, looked up, the tested form may be a part): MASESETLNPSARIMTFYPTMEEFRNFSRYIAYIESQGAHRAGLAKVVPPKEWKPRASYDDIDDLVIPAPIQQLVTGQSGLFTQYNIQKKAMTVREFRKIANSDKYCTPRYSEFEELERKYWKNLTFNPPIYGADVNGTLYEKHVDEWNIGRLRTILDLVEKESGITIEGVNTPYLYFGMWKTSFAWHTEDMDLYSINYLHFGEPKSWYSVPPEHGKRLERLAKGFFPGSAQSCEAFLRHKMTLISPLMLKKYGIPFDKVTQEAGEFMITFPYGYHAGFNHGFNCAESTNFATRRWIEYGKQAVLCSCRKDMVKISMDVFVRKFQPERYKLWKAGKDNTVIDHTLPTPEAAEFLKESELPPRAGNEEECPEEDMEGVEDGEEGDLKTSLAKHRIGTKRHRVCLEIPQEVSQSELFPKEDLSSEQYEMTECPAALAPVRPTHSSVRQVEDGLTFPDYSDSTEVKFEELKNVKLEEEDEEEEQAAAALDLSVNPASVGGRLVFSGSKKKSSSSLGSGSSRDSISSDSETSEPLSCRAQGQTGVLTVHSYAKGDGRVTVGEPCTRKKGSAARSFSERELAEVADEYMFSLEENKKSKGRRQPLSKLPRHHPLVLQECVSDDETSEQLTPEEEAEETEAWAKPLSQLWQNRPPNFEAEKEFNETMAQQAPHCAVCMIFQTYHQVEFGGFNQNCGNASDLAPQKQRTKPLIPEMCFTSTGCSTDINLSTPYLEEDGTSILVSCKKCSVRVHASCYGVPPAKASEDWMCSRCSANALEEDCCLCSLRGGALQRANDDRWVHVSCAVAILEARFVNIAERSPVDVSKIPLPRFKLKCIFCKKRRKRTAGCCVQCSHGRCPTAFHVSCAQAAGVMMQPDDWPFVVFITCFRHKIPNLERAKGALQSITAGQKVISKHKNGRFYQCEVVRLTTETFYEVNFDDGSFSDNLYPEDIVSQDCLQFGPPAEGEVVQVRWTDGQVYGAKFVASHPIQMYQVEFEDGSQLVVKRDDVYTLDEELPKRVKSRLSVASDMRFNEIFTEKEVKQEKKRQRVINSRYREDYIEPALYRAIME
Further: nearly all actives have a fitted effect of over 50% in size.
On the % scale 0 is the no-effect control and ±100 the full control effect; potency means the concentration at half of the fitted maximal effect; tags describe the fitted curve by direction and shape.

Potency, active:
COc1cc(CNCc2cccc3ccccc23)cc(OC)c1 25.1 µM, C#CCOCCOCCOCCNc1nc(N2CCN(C(=O)[C@H](CCCCN)n3cc(CN)nn3)CC2)nc(N2CCN(C(=O)[C@H](CCCCN)n3cc([C@@H](N)CC(N)=O)nn3)CC2)n1 35.5 µM, O=c1cc(CO)oc(C(Nc2ccccn2)c2ccc(F)cc2)c1O (centres undefined) 39.8 µM, O=C(N/N=C/c1cc(Br)c(O)c(Br)c1O)c1ccc2c(c1)OCCO2 39.8 µM, CN1C(=O)/C(=C\C(=O)c2cccs2)c2ccccc21 50.1 µM, O=C(CCl)Nc1ccc(N2CCCCCC2)cc1 50.1 µM

Potency, inconclusive:
CN(N=C(c1ccccc1)c1ccccc1)c1ccccc1 44.7 µM [inhibitor, partial curve], COc1ccccc1CN1C[C@@H]2C[C@@H](C3=Cc4cc(Cl)ccc4OC3)N3CCC[C@@]23C1=O 63.1 µM [inhibitor, partial curve], CCOc1cccc(C2C=C(c3ccc4c(c3)OCO4)NC(c3ccccc3F)N2)c1O (centres undefined) 8.91 µM [inhibitor, full curve, poor fit], CCc1nc(SCC(=O)Nc2nc3c(s2)CCCC3)c2ccccc2n1 35.5 µM [inhibitor, partial curve], Cc1cccc(N2CCN(C(=S)c3ccc4c(c3)OCO4)CC2)c1 31.6 µM [inhibitor, partial curve], Cc1cc(C(C)c2ccccc2)c(O)c(CN2CCOCC2)c1C (centres undefined) 35.5 µM [inhibitor, full curve, poor fit], CC(=O)Nc1ccccc1-c1nc2ccccc2n(Cc2cccc(Br)c2)c1=O 56.2 µM [inhibitor, partial curve], O=C(Nc1ccc(S(=O)(=O)N2CCCCC2)cc1)C1CC1 0.891 µM [inhibitor, full curve, poor fit], CN(C)c1cc[n+](/C(C(=S)Nc2ccc(SC(F)F)cc2)=C(/[O-])c2ccccc2)cc1 89.1 µM [inhibitor, single point], O=C(Cn1c(-c2cccs2)cc2cc(Cl)ccc21)N1CCN(c2ccccc2F)CC1 3.55 µM [inhibitor, single point], S=C(NCCCNc1ccc(Br)cn1)NCCCc1cnc[nH]1 89.1 µM [inhibitor, partial curve], COc1ccc(NC(=O)C(Cc2ccccc2)n2cccc2)cc1OC (centres undefined) 20 µM [inhibitor, full curve], O=[N+]([O-])c1cc(C(F)(F)F)cc([N+](=O)[O-])c1NCCCNc1ccc([N+](=O)[O-])c2cccnc12 5.62 µM [inhibitor, full curve], Cc1ccc(-n2ncc(C(=O)NCCc3c[nH]c4ccccc34)c2C2CCN(C(=O)OC(C)(C)C)CC2)cc1C 14.1 µM [inhibitor, full curve], CC(C)n1c(N2CCN(C(=O)Nc3ccccc3)CC2)nc2ccccc21 39.8 µM [inhibitor, single point], CCCCn1nc2cc(C(=O)NCc3ccc(OC(F)(F)F)cc3)ccc2c1OC 89.1 µM [inhibitor, single point], Cc1ccc(NC(=O)c2c(NC(=O)CCC(=O)O)sc3c2CCCCC3)cc1 44.7 µM [inhibitor, partial curve], COc1ccc(NC(=O)Cn2nnc(C(=O)NCc3ccccc3)c2N)c(OC)c1 22.4 µM [inhibitor, single point], COc1ccc(-n2c(COc3cccc4ccccc34)nnc2SCC(=O)NCc2ccco2)cc1 28.2 µM [inhibitor, full curve], Cc1ccc(Sc2ccc(C(=O)N3CCOCC3)cc2[N+](=O)[O-])cc1 56.2 µM [inhibitor, partial curve], CN(C)C(=S)NC(=S)Nc1ccc2ccccc2c1 3.98 µM [inhibitor, full curve, poor fit], CC1CCCC(C)N1C(=O)CSc1nc(N)cc(N)n1 (centres undefined) 1.41 µM [inhibitor, full curve], Cc1cc(NN)nc(NS(=O)(=O)c2ccccc2)n1 35.5 µM [inhibitor, single point], CCN(CCCNC(=O)c1[nH]c(C)c(C(C)=O)c1C)c1ccccc1 70.8 µM [inhibitor, single point], CCOC(=O)c1c(C)c(C(=O)OCC)n(C)c1C 28.2 µM [inhibitor, single point]

Activity change, negative = inhibition, inactive:
CN(CC1CCCN(CCc2ccc(Cl)cc2)C1)C(=O)c1ccc2nc[nH]c2c1 (centres undefined) -16.9%, CC(=O)/C=C/n1c(=S)oc2ccccc21 -0.699%, COc1cccc(-n2c(SC)nnc2-c2c[nH]c3ccccc23)c1 -8.45%, Cc1ccc(N2CC(C(=O)N(C)CC(=O)Nc3ccc(Cl)c(C(F)(F)F)c3)CC2=O)cc1 (centres undefined) -19.3%, CCC(=O)Nc1ccc(CC)cc1-c1nc2ccccc2n(Cc2ccccc2)c1=O -21.5%, CC(C)CNC(=O)c1cccc(NC(=O)C(C)Oc2ccccc2)c1 (centres undefined) -7.52% [at 11.4 µM], CC(NC(=O)CN(c1ccc(Cl)cc1Cl)S(=O)(=O)c1ccccc1)c1ccccc1 (centres undefined) -6.34%, COc1cc(NC(=O)Cn2nc(-c3ccc(F)cc3)ccc2=O)ccc1-n1cnnn1 -15%, COC(=O)c1sc(NC(=S)NC(=O)c2cccc(Br)c2)nc1C 0.68%, CCN1CCCC1CNC(=O)C(=O)Nc1ccccc1 (centres undefined) -17.1%, O=C(O)C/C(=C\c1cc2c(cc1Br)OCO2)c1nc2ccccc2s1 -7.69%, COc1cc(OC)cc(C(=O)N[C@H](C(=O)Nc2nc(-c3ccc(OC)c(OC)c3)cs2)C(C)C)c1 -7.48%, COc1ccc(S(=O)(=O)N2CCC(c3cc(-c4cccc5ccccc45)n[nH]3)CC2)cc1 -25.7%
